# Test results: PubChem BioAssay AID1671188 (National Center for Advancing Translational Sciences (NCATS), 2021)
# The whole screen tested about 100,000 compounds, of which about 250 (0.25%) were called active. The shares of active, inactive and inconclusive entries below differ from those in the screen. Calls come from the whole dose curve; as a rule, active = well fitted inhibition curve with a large enough effect; inconclusive = small, poorly fitted or top-dose-only effect; inactive = flat fitted curve, though single readings scatter. No potency is given beside an inconclusive call; the fits are too rough.
# Target: Alanine aminotransferase 2 (Homo sapiens) (UniProt Q8TD30)
# Sequence of UniProt Q8TD30 (Q8TD30 whole entry, looked up): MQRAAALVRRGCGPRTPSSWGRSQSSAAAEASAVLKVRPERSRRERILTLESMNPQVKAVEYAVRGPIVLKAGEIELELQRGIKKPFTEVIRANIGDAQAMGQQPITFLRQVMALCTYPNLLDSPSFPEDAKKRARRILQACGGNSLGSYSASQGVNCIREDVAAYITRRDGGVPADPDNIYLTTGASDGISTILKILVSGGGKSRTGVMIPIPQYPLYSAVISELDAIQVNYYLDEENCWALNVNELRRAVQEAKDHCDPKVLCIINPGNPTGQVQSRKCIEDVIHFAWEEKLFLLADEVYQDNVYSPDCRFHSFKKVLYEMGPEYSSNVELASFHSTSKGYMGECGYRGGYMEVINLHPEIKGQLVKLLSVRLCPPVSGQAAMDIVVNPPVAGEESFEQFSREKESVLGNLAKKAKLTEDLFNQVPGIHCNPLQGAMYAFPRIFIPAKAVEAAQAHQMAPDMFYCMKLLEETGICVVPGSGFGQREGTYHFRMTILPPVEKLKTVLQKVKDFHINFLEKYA
# Experiment: Primary qHTS assay for inhibitors of Glutamate pyruvate transaminase 2 (GPT2); note: nearly all actives have a fitted effect of over 60% in size
# Details: Recombinant GPT2, coupled pyruvate oxidase/HRP Amplex Red fluorescence; activity change, negative = inhibition: at 57.7 µM (top of the series) unless noted; series mostly up to 57.7 µM
# How it was run: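 Fluorescence of coupled pyruvate oxidase/HRP/Amplex Red system (50uM Amplex, 30 min, dark) reports pyruvate formed by GPT2. Enzyme reaction: 10ng/uL GPT2, 2mM L-alanine, 250uM a-KG, 30 min room temperature, pH 7.5; 50uM AOA control.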
# % is set by controls: 0 for no effect and ±100 for the full control effect; potency is the fitted concentration of half-maximal effect; tags give direction and shape of the fitted curve.
Structure (SMILES),outcome,Potency,"activity change, negative = inhibition"
CN1CCN(c2ccc(-c3cc4c(ccn4C)c(C(=O)NCC4CCOCC4)n3)cc2)CC1,inactive,,
COCCn1ccc2c(C3=CCOCC3)nc(-c3cccc4[nH]ccc34)cc21,,"inconclusive [inhibitor, single point]",
c1ccc(CCNc2ncncc2-c2nc(-c3ccccc3)no2)cc1,inactive,,
CCC1=C(C(=O)OC)C(c2ccccc2OC)N2C(CC(=O)NC(C)(C)C)=CSC2=N1 (stereo unspecified),,"inconclusive [inhibitor, single point]",
CC(=O)Nc1ccc(C2(C(=O)NCc3ccco3)CCC2)cc1,,"inconclusive [inhibitor, single point]",
COC(=O)N1CCn2cc(C(=O)NCc3ccc(Cl)nc3)nc2C1,,"inconclusive [inhibitor, full curve, poor fit]",
CCOC(=O)C1(Cc2ccccc2C(F)(F)F)CCN(Cc2ccccn2)CC1,,"inconclusive [inhibitor, single point]",
CC(C)N1C[C@H](Oc2ccccc2)[C@@H]1C1CCN(C(=O)c2ccccn2)CC1,,"inconclusive [inhibitor, single point]",
COc1ccc(-c2cc(N3CCCC(NC(=O)c4cc(C)ccc4C)C3)n[nH]2)cc1 (stereo unspecified),,"inconclusive [inhibitor, partial curve]",
Cn1cccc1CN[C@H]1[C@H](O)[C@@H](N2CCC(C(N)=O)CC2)[C@@H]2OC[C@H]1O2,,"inconclusive [inhibitor, single point]",
O=c1c(-c2ccc(O)cc2)coc2cc(OC3O[C@H](CO)[C@H](O)[C@H](O)[C@H]3O)cc(O)c12 (stereo partly specified),,"inconclusive [inhibitor, single point]",
O=C(Nc1ccc(C2(C(=O)NCc3ccccn3)CCCCC2)cc1)C1CC1,,"inconclusive [inhibitor, single point]",
COc1ccc(C(=O)Nc2ccc([C@@H](O)[C@H]3COCC(=O)N3CC3CCCCC3)cc2)cc1,,,inactive: 0.578%
Cc1ccc(CN(C)C(=O)c2coc(COc3ccc4c(c3)OCO4)n2)o1,,"inconclusive [inhibitor, single point]",
COC(=O)CCCNC(=O)[C@@]1(O)C[C@@H](O)[C@H](O)[C@@H](NC(=O)Nc2ccc(C)cc2)C1,,"inconclusive [inhibitor, single point]",
COc1ccc(Nc2ccnc(N3CCC(NC(=O)c4ccc(Cl)nc4)CC3)n2)cc1,,"inconclusive [inhibitor, single point]",
CCNC(=O)[C@@H]1C[C@H](n2cc(CN(C)C(=O)c3cccc(C)c3C)nn2)CN1,,"inconclusive [inhibitor, partial curve, poor fit]",
O=C([C@H]1CCC[C@@H](O)C1)N1CCN(c2ccc3nccn3n2)CC1,,"inconclusive [inhibitor, partial curve, poor fit]",

Structure (SMILES),outcome,Potency,"activity change, negative = inhibition"
COCCc1noc([C@@H]2CC(F)(F)CN2C(=O)c2ccccn2)n1,,,inactive: 1.97%
C=CCn1cc2c3c(cccc31)[C@H](CC(C)C)N[C@H](C(=O)NCCN(C)C)C2,,"inconclusive [inhibitor, single point]",
COc1ccc([C@H]2C[C@@H](O)[C@@H](O)[C@@H]2NC(=O)c2ccccc2)cc1,,"inconclusive [inhibitor, partial curve, poor fit]",
O=C(c1ccc(C(F)(F)F)cc1)N1CCN(C2CCN(Cc3ccccn3)C2=O)CC1 (stereo unspecified),,"inconclusive [inhibitor, partial curve]",
CN(C)c1nccnc1OC1CCN(C(=O)CCC(=O)c2ccc(F)cc2)C1 (stereo unspecified),inactive,,
COc1ccccc1OCCNC(=O)[C@H]1CCC[C@H]1NC(=O)c1cnc(C)cn1,,,inactive: -8.91%
O=C(c1ccccc1)N1CCC(C(=O)N2CCC(c3nc4ccncc4[nH]3)C2)CC1 (stereo unspecified),inactive,,
CCNC(=O)c1c(C)oc2c1CN(Cc1ccc(Br)o1)CC2,,"inconclusive [inhibitor, single point]",
O=C(NCC1(COc2ccccc2)C[C@@H](O)[C@@H](O)C1)C1CCOCC1 (stereo partly specified),,"inconclusive [inhibitor, partial curve, poor fit]",
O=C(NCc1ccccn1)C1CCN(Cc2cc3n(n2)CCCNC3)CC1,,"inconclusive [inhibitor, full curve, poor fit]",
COc1ccc(CCNC(=O)c2nnn3c2COC(c2ccc(C)cc2)C3)cc1OC (stereo unspecified),,"inconclusive [inhibitor, single point]",
COc1cccc(CCC(=O)N2CCC(CC(=O)NC3CC3)C2)c1 (stereo unspecified),inactive,,
C=C1C[C@]23C[C@H]1CC[C@H]2[C@@]12CC[C@H](O)[C@@](C)(C(=O)O1)[C@H]2[C@@H]3C(=O)O,,"inconclusive [inhibitor, single point]",
CC(=O)O[C@@H]1[C@H](O[C@@H]2O[C@H](CO)[C@@H](O)[C@H](O)[C@H]2O)[C@@H](O[C@@H]2O[C@@H](C)[C@H](O)[C@@H](O[C@@H]3O[C@H](CO)[C@@H](O)[C@H](O)[C@H]3O)[C@H]2O)[C@H](OC(=O)C23CCC4(C)C(=CCC5C6(C)CC(O)C(O[C@@H]7O[C@H](C(=O)O)[C@@H](O)[C@H](O)[C@H]7O)C(C)(C(=O)O)C6CCC54C)C2CC(C)(C)CC3O)O[C@@H]1C (stereo partly specified),,"inconclusive [inhibitor, single point]",
Cc1ccc(N2Cc3c(NCCc4ccc(F)cc4)ncnc3N(C)CC2=O)cc1,,"inconclusive [inhibitor, partial curve, poor fit]",
COc1ccccc1Nc1ccnc(N2CCN(C(=O)Nc3ccccc3)CC2)n1,,"inconclusive [inhibitor, single point]",
c1cncc(-c2cc(-c3cccc4cc[nH]c34)cn3cncc23)c1,,"inconclusive [inhibitor, single point]",
CCCOc1ccc(CNC(=O)[C@H]2CCC[C@H]2NC(=O)c2ccc(OC)cc2)cc1,,,inactive: 4.61%
